Reference: PubChem BioAssay (NCI)
Values joined by “and” are separate entries in the source; they are usually repeats but may differ in a detail not shown here. Identical values can stand only once.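 Test compounds were applied to cells in 96-well plates for 48 hours at 5 doses. GI50 marks 50% less growth. Definition used: TGI = concentration required for complete inhibition of growth.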 Peptide text beside a SMILES is read from it. * marks the point of attachment. Boc = CC(C)(C)OC(=O)*; nBu = CCCC*

tested on: NCI-H322M lung; assay: inhibition of tumour cell growth, NCI panel, 48 h

| SMILES | TGI | GI50 |
| --- | --- | --- |
| CCN(c1ccccc1)[C@H]1C(=O)N(c2ccc([N+](=O)[O-])cc2)[C@H]1c1ccc(OC)cc1 | > 100 µM |  |
| COC(=O)/C=C(\C)CCC1SC1(C)C (stereo not drawn) | > 100 µM |  |
| C=C1C[C@@H]2O[C@H]3[C@H]4[C@@H](CC[C@@](C)(OC(=O)CCC)[C@H]42)[C@@H](C)C(=O)O[C@@]3(C)CC[C@H]1OO | 54 µM | 23.5 µM |
| C1CCCN(NC2=NCCO2)CC1 | > 100 µM |  |
| COc1ccc(/C=C/C(=O)c2cc3c(N)c(C(=O)Nc4ccc(OC)cc4)sc3nc2C)cc1 | > 50 µM | 0.23 µM |
| CCCCOc1ccc(CC(NC(=O)OC(C)(C)C)C(=O)NC(C)C(=O)NC(Cc2ccccc2)C(=O)NCC(N)=O)cc1 (stereo not drawn) (Boc-Y(nBu)AFG-NH2; configuration not given here) | > 100 µM |  |
| CC(C)(C)O/N=C/c1cc(NC(=S)c2ccsc2)ccc1Cl | 53.7 µM |  |
| O=C(O)c1cc2ccccc2c(N=Nc2ccc(S(=O)(=O)Nc3ncccn3)cc2)c1O | > 100 µM |  |
| CS(=O)(=O)Nc1cc(-c2ccc3ncnc(Nc4cccc(Cl)c4)c3c2)cnc1Cl | 2.7 µM | 0.278 µM |
| COc1cc2ncnc(Oc3cccc(NC(=O)Nc4cc(C(C)(C)C(F)(F)F)on4)c3)c2cc1OC | 17.3 µM and > 10 µM | 1.05 µM and 1.79 µM |
| CCOC(=O)c1nc2ccc(C(F)(F)F)cc2nc1Nc1ccc(OC)cc1 | > 100 µM |  |
| O=C(NCCNCCNC(=O)c1cc(-c2ccccc2)nc2ccccc12)c1cc(-c2ccccc2)nc2ccccc12 | 10.9 µM |  |
| O=C1NC2(CCNCC2)Oc2ccccc21 | > 100 µM |  |
| Cc1ccc(-c2cn3c(nc4ccccc43)c(/C=C/c3ccco3)n2)cc1 | > 100 µM |  |
| Oc1ccccc1C=Nc1ccc(-c2nc3ccccc3s2)cc1 | > 100 µM |  |
| C=C1C(O)C2(O)OCC34C(CC5C(C)=CC(=O)C(O)C5(C)C23)OC(=O)C(OC(=O)C/C=C/CCCCCCCC)C14 (stereo not drawn) | 0.238 µM |  |
| CN(C)CCN1CCc2c([nH]c3ccccc23)C1c1cccnc1 (stereo not drawn) | > 100 µM |  |
| CC(O)[C@H](NC(=O)N[C@@H](CC(N)=O)c1nc(N2CCNCC2)no1)C(=O)O (stereo partly drawn) | > 100 µM | > 100 µM |
| Cc1[nH]c(-c2ccccc2)c2nc(N(C)C)oc(=O)c12 | > 100 µM |  |
| O=C1OC(=O)C([Se]c2ccccc2)=C1[Se]c1ccccc1 | > 100 µM |  |
| CC1(C)OC(=O)C(=C2CCC(C(=O)Nc3cccc(C(F)(F)F)c3)N2)C(=O)O1 (stereo not drawn) | > 100 µM |  |
| NC1=NCN(C2OC(CO)C(O)C2O)C(=O)N1 (stereo not drawn) | 1690 µM |  |
| CSC1=Nc2c(c(C)c(-c3ccccc3)n2COC(CO)CO)C2=NC(=O)CC(C)N12 (stereo not drawn) | > 100 µM | > 100 µM |
| CCOC(=O)C(=CNc1ccc(F)c(F)c1)C(=O)OCC | > 100 µM |  |
| CCc1n[nH]c(=O)n1/N=C(\C)c1ccccc1 | > 100 µM |  |
| Cc1ccc(S(=O)C(C)C(Cl)c2ccccc2)cc1 (stereo not drawn) | > 100 µM |  |

| SMILES | TGI | GI50 |
| --- | --- | --- |
| Cn1c(=O)c2c(nc(N/N=C/c3ccccc3C(=O)O)n2C)n(C)c1=O | > 100 µM |  |
| CN(CCc1ccccn1)c1ccc2c(c1)C(=O)c1ccccc1-2 | > 100 µM |  |
| COc1cc(C2S/C(=C/c3ccccc3)C(=O)N2c2cccc(NC(C)=O)c2)cc(OC)c1OC (stereo not drawn) | 84.8 µM |  |
| Cc1ccc(S(=O)(=O)N2CCSCCSCCSCCN(S(=O)(=O)c3ccc(C)cc3)CC2)cc1 | > 100 µM |  |
| COc1cc([C@@H]2c3cc4c(cc3[C@@H](NCc3cccc(C#N)c3)C3COC(=O)[C@@H]32)OCO4)cc(OC)c1O (stereo partly drawn) | > 100 µM |  |
| C=C1C2=C(CCCC2)C(=O)OC12CCCCC2 | > 100 µM |  |
| C#C[C@]1(O)CC[C@H]2[C@@H]3CC=C4c5nc(N)sc5CC[C@]4(C)[C@H]3CC[C@@]21C | 62.6 µM | 10 µM |
| O=C1CSC(c2ccccc2O)N1c1ccc(-n2c(-c3ccccc3)nc3ccccc3c2=O)cc1 (stereo not drawn) | > 100 µM |  |
| O=c1oc2c3ccc4ccccc4c3n(CCN3CCCCC3)c2c2ccccc12 | > 100 µM |  |
| CCCCCCCCC(O)c1ccc(/C=C\C(O)CCCC(=O)O)s1 (stereo not drawn) | > 100 µM |  |
| CC(=O)[C@H]1[C@H](O)C[C@@]2(C)[C@@H]3CCc4cc(O)c(OC5OC(CO)C(O)C(O)C5O)cc4C3(C)C(=O)C[C@]12C (stereo partly drawn) | > 100 µM |  |
| COc1cc2c(c(OC)c1OC)C(=O)NCCC2 | > 100 µM |  |
| CCCCCCCCCCCCCCCc1nc(=S)[nH][nH]1 | > 100 µM |  |
| CSc1nc(=O)cnn1C | > 100 µM |  |
| Cc1ccc2nc(NS(=O)(=O)c3cc(C)c(Cl)cc3S)[nH]c2c1 | > 100 µM |  |
| O=C(NCCN1CCCCC1)c1cccc(I)c1 | > 100 µM |  |
| N#[N+]c1ccc(Nc2ccccc2)cc1 | > 50 µg/mL | > 50 µg/mL |
| COc1ccc2c(c1)C(=O)c1c-2c(OCCN(C)C)nc2cc(OC)c(OC)cc12 | 43.3 µM | 1.45 µM |
| CC(C)OP(=O)(O)c1ncc(-c2ccc(C(F)(F)F)cc2)c(NC2CCCCCC2)n1 | > 100 µM | > 100 µM |
| COc1cc(NC2CCCCC2O)c2nc(-c3ccc(Cl)cc3)ccc2c1 (stereo not drawn) | > 100 µM | 16.8 µM |
| CCOP(=O)(O)C(Nc1ccc(N=Nc2ccccc2)cc1)c1cccc(C(Nc2ccc(N=Nc3ccccc3)cc2)P(=O)(O)OCC)c1 (stereo not drawn) | > 100 µM |  |
| COc1ccccc1C(=O)N(Cc1ccccc1)c1ccc(Cl)c(C(=O)OC(C)C)c1 | > 100 µM |  |
| COc1ccc(-c2nc(Nc3ccccc3)sc2Cc2sc(Nc3ccccc3)nc2-c2ccc(OC)cc2)cc1 | > 100 µM |  |
| CC(=O)c1ccc(Nc2c3ccccc3nc3occc23)cc1 | 58.9 µM |  |
| Cc1cc(Cl)ccc1NC(=O)C1C(=O)N(c2ccc(Cl)cc2C)C(=O)/C1=N\NC(N)=S (stereo not drawn) | > 100 µM |  |
| Cc1cc(-c2nc3c(F)cccc3s2)ccc1N | > 100 µM |  |
